Data as given in PMC7939435.
These are yes or no findings as the source states them, for the method shown. In cells and extracts the contact can be indirect. Some results given as binding are weak or reduced against the parent protein; the word gives no strength. Where a sequence is shown, tags or fusion partners need not be part of it.

Assays:
GST-p6 (HIV-1) [1] = biological target: GST-p6 (HIV-1) (UniProt P04591); assay: pull-down; GST-tagged Gag fragment on GSH-Sepharose incubated overnight with yeast extract, binding buffer with 400 mM NaCl, 1 mg/ml BSA; only the target purified
GST-MA (HIV-1) = GST-MA (HIV-1) (UniProt P04591); assay: pull-down; GST-tagged Gag fragment on GSH-Sepharose incubated overnight with yeast extract, binding buffer with 150 mM NaCl, 1 mg/ml BSA; also with extract of Δbro1 or Δvps23 cells (Fig. S12 D, E); only the target purified
[2] = biological target: CA-SP1-NC-SP2-GFP (expressed in yeast) (HIV-1) (UniProt P04591); assay: co-IP; GFP-tagged Gag version immunoprecipitated from yeast extract with polyclonal anti-GFP and Protein A-Sepharose, 50 mM Tris pH 7.5, 400 mM NaCl, 1% Triton X-100, 10% glycerol, 4 °C overnight; Bro1 or Vps23 detected by anti-HA or anti-Myc blot; also done with Δbro1 or Δvps23 cells (Fig. S12 A-C)
[3] = biological target: Gag(Δp6)-GFP (expressed in yeast) (HIV-1) (UniProt P04591); assay: as above
[4] = biological target: MA-GFP (expressed in yeast) (HIV-1) (UniProt P04591); assay: as above
GST-p6 (HIV-1) [5] = biological target: GST-p6 (HIV-1) (UniProt P04591); assay: pull-down; GST-tagged Gag fragment on GSH-Sepharose incubated overnight with yeast extract, binding buffer with 150 mM NaCl, 1 mg/ml BSA; also with extract of Δbro1 or Δvps23 cells (Fig. S12 D, E); only the target purified
[6] = biological target: SP1-NC-SP2-GFP (expressed in yeast) (HIV-1) (UniProt P04591); assay: co-IP; GFP-tagged Gag version immunoprecipitated from yeast extract with polyclonal anti-GFP and Protein A-Sepharose, 50 mM Tris pH 7.5, 400 mM NaCl, 1% Triton X-100, 10% glycerol, 4 °C overnight; Bro1 or Vps23 detected by anti-HA or anti-Myc blot; also done with Δbro1 or Δvps23 cells (Fig. S12 A-C)

B1: Vps23 (genomically epitope-tagged) (protein, UniProt P25604 1-385)
chain: MSANGKISVPEAVVNWLFKVIQPIYNDGRTTFHDSLALLDNFHSLRPRTRVFTHSDGTPQLLLSIYGTISTGEDGSSPHSIPVIMWVPSMYPVKPPFISINLENFDMNTISSSLPIQEYIDSNGWIALPILHCWDPAAMNLIMVVQELMSLLHEPPQDQAPSLPPKPNTQLQQEQNTPPLPPKPKSPHLKPPLPPPPPPQPASNALDLMDMDNTDISPTNHHEMLQNLQTVVNELYREDVDYVADKILTRQTVMQESIARFHEIIAIDKNHLRAVEQAIEQTMHSLNAQIDVLTANRAKVQQFSSTSHVDDEDVNSIAVAKTDGLNQLYNLVAQDYALTDTIECLSRMLHRGTIPLDTFVKQGRELARQQFLVRWHIQRITSPLS
binding (GST-p6 (HIV-1) [1]): no binding
binding (GST-MA (HIV-1)): binds
binding [2]: binds
binding [3]: binds
binding [4]: binds

B2: Bro1 (genomically epitope-tagged) (protein, UniProt P48582 1-844)
chain: MKPYLFDLKLKDTEKLDWKKGLSSYLKKSYGSSQWRTFYDEKATSELDHLRNNANGELAPSSLSEQNLKYYSFLEHLYFRLGSKGSRLKMDFTWYDAEYSSAQKGLKYTQHTLAFEKSCTLFNIAVIFTQIARENINEDYKNSIANLTKAFSCFEYLSENFLNSPSVDLQSENTRFLANICHAEAQELFVLKLLNDQISSKQYTLISKLSRATCNLFQKCHDFMKEIDDDVAIYGEPKWKTTVTCKLHFYKSLSAYYHGLHLEEENRVGEAIAFLDFSMQQLISSLPFKTWLVEFIDFDGFKETLEKKQKELIKDNDFIYHESVPAVVQVDSIKALDAIKSPTWEKILEPYMQDVANKCDSLYRGIIPLDVYEKESIYSEEKATLLRKQVEETETANLEYSSFIEFTNLPRLLSDLEKQFSDGNIFSNTDTQGQLMRDQIQTWCKFIQTNEFRDIEEQMNKIVFKRKQILEILSALPNDQKENVTKLKSSLVAASNSDEKLFACVKPHIVEINLLNDNGKIWKKFDEFNRNTPPQPSLLDIDDTKNDKILELLKQVKGHAEDLRTLKEERSRNLSELRDEINNDDITKLLIINKGKSDVELKDLFEVELEKFEPLSTRIEATIYKQSSMIDDIKAKLDEIFHLSNFKDKSSGEEKFLEDRKNFFDKLQEAVKSFSIFASDLPKGIEFYDSLFNMSRDLAERVRVAKQTEDSTANSPAPPLPPLDSKASVVGGPPLLPQKSAAFQSLSRQGLNLGDQFQNLKISAGSDLPQGPGIPPRTYEASPYAATPTMAAPPVPPKQSQEDMYDLRRRKAVENEERELQENPTSFYNRPSVFDENMYSKYSS
binding (GST-p6 (HIV-1) [1]): binds weakly
binding (GST-MA (HIV-1)): binds
binding (GST-p6 (HIV-1) [5]): no binding (condition: with 150 mM NaCl)
binding [2]: binds
binding [3]: binds
binding [4]: binds
binding [6]: no binding
